Data from PubChem BioAssay AID686979 (National Center for Advancing Translational Sciences (NCATS), 2013).
The campaign covered roughly 420,000 compounds. About 50,000 (12%) were called active. This list was built around the results that the source calls inconclusive (neither active nor inactive); the mix of calls is not that of the screen. Calls come from the whole dose curve; as a rule, active = well fitted inhibition curve with a large enough effect; inconclusive = small, poorly fitted or top-dose-only effect; inactive = flat fitted curve, though single readings scatter. No potency is given beside an inconclusive call; the fits are too rough.

Assay: qHTS for Inhibitors of human tyrosyl-DNA phosphodiesterase 1 (TDP1): qHTS in cells in presence of CPT; note: nearly all actives have a fitted effect of over 55% in size
Conditions: chicken DT40 Tdp1-/-;hTDP1 cells + 20 nM CPT, ATP luminescence, 48 h; activity change, negative = growth inhibition: at 46.2 µM (top of the series) unless noted
In short: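 Chicken DT40 Tdp1-/- cells complemented with human TDP1, 400 cells/well, exposed to compounds plus 20 nM camptothecin for at least 48 h at 37 C; viability read as ATP content by CellTiter-Glo luminescence.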
% is set by controls: 0 for no effect and ±100 for the full control effect; potency is the fitted concentration of half-maximal effect; tags give direction and shape of the fitted curve.

Compound	Potency	activity change, negative = growth inhibition
COc1ccc(C)cc1NC(=O)c1c(C)oc2ncn(CC(C)C)c(=O)c12	inconclusive [inhibitor, single point]	
COc1ccccc1NC(=O)C(=O)NCC1CCCN1S(=O)(=O)c1cccs1 (stereo not given)	inconclusive [inhibitor, single point]	
c1coc(CNc2nc(-c3ccncc3)cs2)c1	inconclusive [inhibitor, single point]	
CCCn1cc(S(=O)(=O)c2ccccc2)c(=O)c2cc(F)c(N3CCCC(C)C3)cc21 (stereo not given)	inconclusive [inhibitor, single point]	
CCCCCCN1C(=O)C(O)=C(C(C)=O)C1c1ccccc1[N+](=O)[O-] (stereo not given)	inconclusive [inhibitor, single point]	
CC(NC(=O)Nc1ccccc1)C(c1cccs1)N1CCN(c2ccccc2)CC1 (stereo not given)	active: 13 µM	
COc1ccc(NC(=O)CNC(=O)c2nn(-c3ccc(OC)c(OC)c3)c(=O)c3ccccc23)c(OC)c1	inconclusive [inhibitor, partial curve, poor fit]	
CC(=O)N(c1nc(CCl)cs1)c1c(C)cc(C)cc1C	inactive	
CN(C)CCNC(=O)COc1cccc(Cl)c1	inactive	
Cc1ccc(C)c(C(=O)COC(=O)c2n[nH]c3ccccc23)c1	inconclusive [inhibitor, single point]	
CC(Sc1ccc(S(=O)(=O)N2CCOCC2)cn1)C(=O)Nc1ccc(Cl)cc1Cl (stereo not given)	inconclusive [inhibitor, single point]	
Cc1cccc(NC(=O)CNC(=O)CSc2nnc(C(F)(F)F)n2C)c1C	inactive	
O=C(NCc1cccc(Cl)c1)c1ccc(-n2cncn2)c2ccoc12	active: 16.4 µM	
CCOc1ccc(N(C(C)C(=O)N/N=C(\C)c2cccc(NC(=O)c3ccccc3)c2)S(C)(=O)=O)cc1 (stereo not given)	active: 18.4 µM	
CCS(=O)(=O)Nc1cc(C(=O)N2C[C@@H](C)O[C@@H](C)C2)c2c(c1)nc(-c1ccccc1)n2C	inactive	
Cc1sc2ncn(CC(=O)NCCCN3CC(C)CC(C)C3)c(=O)c2c1S(=O)(=O)N1CC(C)CC(C)C1 (stereo not given)	active: 18.4 µM	
Cc1ccccc1Cn1nnc(C(=O)Nc2ccc3c(c2)OCCO3)c1N	inconclusive [inhibitor, single point]	
CC1CN(C(=O)CCS(=O)(=O)c2ccccc2)CC(C)O1 (stereo not given)	inactive	
COc1cccc(-c2nnc(SCN3C(=O)c4ccccc4C3=O)n2C)c1	inconclusive [inhibitor, partial curve]	
CCOc1ccc(CNCc2ccc(C(=O)O)cc2)cc1OC	inactive	
O=C(O)COc1ccccc1O	inconclusive [inhibitor, single point]	
Cc1ccc(CSCC(=O)N2CCN(c3ccccc3F)CC2)cc1	inconclusive [inhibitor, partial curve]	
Oc1ccccc1N=Cc1sc2ccccc2c1Cl	inconclusive [inhibitor, single point]	
O=C(Nc1ccc(Cl)cc1)N1CCC(c2nc(-c3ccc(F)cc3)no2)CC1	active: 10 µM	

Compound	Potency	activity change, negative = growth inhibition
COC(=O)[C@@]1(Sc2ccc(C)cc2)CC(=O)N(C(=O)CCc2ccccc2)[C@@H]1c1ccccc1	inconclusive [inhibitor, single point]	
COc1ccc(-c2cn3c(C)c(C(=O)Nc4cccc(C)n4)sc3n2)cc1	inconclusive [inhibitor, partial curve, poor fit]	
CCCNC(=O)c1cc2c(c(-c3cccc(-c4ccc(F)cc4)c3)n1)[C@H](CCO)N(S(=O)C(C)(C)C)C2 (stereo not given in full)	inconclusive [inhibitor, single point]	
COc1ccccc1N1CCN(/N=C/c2cc(OC)c(OC(C)=O)c(OC)c2)CC1	inconclusive [inhibitor, single point]	
C[C@H](NC(=O)Nc1cccc(Br)c1)C(=O)O	inconclusive [inhibitor, single point]	
COC(=O)C1CCCCN1C(=O)CCc1nnc(CCc2c[nH]c3ccccc23)o1 (stereo not given)	inconclusive [inhibitor, single point]	
COc1ccc(CN2CCCN(S(=O)(=O)c3ccc(Br)cc3)CC2)cc1	inconclusive [inhibitor, single point]	
Cc1ccc(S(=O)(=O)c2cc3cc(C(=O)O)ccc3oc2=O)cc1	inactive	
COc1cc(/C=N/Nc2cccc(C)c2)ccc1OC(=O)c1ccco1	inactive	
O=C(CCc1nc2sc3c(c2c(=O)[nH]1)CCCC3)Nc1ccccc1Cl	inconclusive [inhibitor, full curve]	
Cc1cccc(-c2nnc(SCC#N)n2-c2ccccc2)c1	inactive	
Cc1cc(/C=C2/NC(=O)NC2=O)c(C)n1C	inconclusive [inhibitor, single point]	
Cc1ccc(C)c(OCCNc2ncccc2[N+](=O)[O-])c1	inconclusive [inhibitor, single point]	
CCOC(=O)c1c(NC(=O)COc2cc(C)ccc2C(C)C)sc(C)c1C	inactive	
Cn1c(C(C(=O)NCC2CCCO2)N(CCc2ccccc2)C(=O)Cn2nnc3ccccc32)nc2ccccc21 (stereo not given)	inconclusive [inhibitor, single point]	
CC(=O)Nc1ccc2c(c1)C(=O)c1ccccc1C2=O	inconclusive [inhibitor, partial curve]	
COc1ccc(N2C(=O)CC(NCc3ccncc3)C2=O)cc1 (stereo not given)	inactive	
COCCNc1nc(-c2ccccc2F)c2sc(-c3ccccc3)cc2n1	active: 18.4 µM	
COc1ccc(N2CCN(CCNC(=O)Nc3ccc([N+](=O)[O-])cc3OC)CC2)cc1	active: 29.1 µM	
Cn1c(NCCO)nc2c(c1=O)C1(CCCCC1)Cc1ccccc1-2	inconclusive [inhibitor, single point]	
Cc1cc2occ(CC(=O)N(C)CC(=O)Nc3ccccc3Cl)c2cc1C	inactive	
COc1cc(-c2[nH]ncc2CN2CCCC2c2nonc2C)cc(OC)c1OC (stereo not given)	inconclusive [inhibitor, single point]	
Cc1ccc(S(=O)(=O)N2CCN(C(=O)CSC(=S)N3CCCC3)CC2)c(C)c1	active: 5.17 µM	
COc1cccc(C(=O)NC(=S)Nc2ccccc2N2CCOCC2)c1	inconclusive [inhibitor, single point]	

Compound	Potency	activity change, negative = growth inhibition
COCCNCC1C(Oc2ccc(Cl)cc2)C(=O)N1c1ccccc1C (stereo not given)	inconclusive [inhibitor, single point]	
COc1ccc(-n2nc3c(c2NC(=O)CCCl)CSC3)cc1	inconclusive [inhibitor, single point]	
CN(Cc1ccccc1Cl)C(=O)c1cc2ccccc2o1	inconclusive [inhibitor, partial curve]	
O=[N+]([O-])c1ccc(NN=CC2CCCCCC2)c([N+](=O)[O-])c1	active: 14.6 µM	
CCOC(=O)N1CCN(C(=O)CS(=O)(=O)c2cn(Cc3ccccc3Cl)c3ccccc23)CC1	inconclusive [inhibitor, partial curve]	
CCOC(=O)[C@H]1[C@H]2COc3ccc(Cl)cc3[C@@H]2N2C(=O)c3cc(F)c(F)cc3NC(=O)[C@@]12C	inconclusive [inhibitor, single point]	
COc1ccc2nc(NC(=O)CCc3cc(OC)c(OC)c(OC)c3)sc2c1	inconclusive [inhibitor, single point]	
COc1cc(OC)c(OC)cc1CN1CCC(n2cc(C(=O)N3CCCCC3)nn2)CC1		inactive: 8.34% [at 9.04 µM]
CCOc1ncccc1C(=O)N(C)CC1COc2ccccc2O1 (stereo not given)		inconclusive: -25.3% [inhibitor]
CCOc1ccc(NC(=O)c2nn(C)c3c2CS(=O)(=O)c2ccccc2-3)cc1	inactive	
COc1ccc(Cc2nn3c(-c4ccccc4Br)nnc3s2)cc1	inconclusive [inhibitor, single point]	
CCCn1nc(Oc2nc(NCC)nc(NC(C)C)n2)ccc1=O	inconclusive [inhibitor, single point]	
CCOc1ccccc1OCCOCCN1CCN(Cc2ccccc2)CC1	inconclusive [inhibitor, single point]	
CCOc1cc(/C=N/NC(=O)CCc2n[nH]c(=O)[nH]c2=O)ccc1O	inactive	
Cc1ccc(CN(C)C(=O)COc2ccc(S(=O)(=O)N3CCCC3)cc2[N+](=O)[O-])c(C)c1	inconclusive [inhibitor, single point]	
CCCCNC(=O)c1nn2c(C(F)(F)F)cc(-c3ccc(OC)cc3)nc2c1Br	active: 23.1 µM	
OCc1nnc2c3ccccc3c(-c3ccccc3)nn12	inconclusive [inhibitor, partial curve, poor fit]	
O=C(Nc1ccc(Cl)cn1)C1COc2ccccc2O1 (stereo not given)	inconclusive [inhibitor, full curve, poor fit]	
COc1ccc(NC(=O)Cc2coc3cc(C)ccc23)cc1S(=O)(=O)N1CCOCC1	inactive	
CCOc1ccc(NC(=O)c2c(NC(=O)CN3CCCC3)sc3c2CCC3)cc1	inconclusive [inhibitor, single point]	
Cc1cc(C)c2nc(NNC(=O)c3cc(=O)c4ccccc4o3)sc2c1	active: 29.1 µM	
COCCn1c(SCc2nc(N)nc(Nc3ccccc3C)n2)nc2ccccc2c1=O	inconclusive [inhibitor, single point]	
